# Source: the RNAGym collection of RNA variant scans (doi:10.7554/elife.90254)
# Read counts are not given, so values of variants with three or more changes are uncertain.
# B1: LINE1-full (parent)
# chain: UACGUAGGUGGUUUUCCCCUGAUAGUGCUAAGGGGGCCUGGAAGUUUGGACUGGGCAGAGCUCAACACAGCGUGGCAAAGUGGCUGUGGCUAGACUGCCUCUCUGGAUUCCUCGUCACUCAGCAGGGCAUCUCUGAGAGAAAUGCC
# Variants of: B1
# Experiment: self-cleavage, relative activity (ratio to wild type); higher = more cleavage; in vitro, sequencing; the parent is a self-cleaving ribozyme
row,Variant,self-cleavage
1,U73C A92G A136U,0
2,A69G A107U U108C,1.74
3,A69G A107G A138U,1.41
4,C68U U73A A79G U100C A141G,0.44
5,A69G A94U A136G,0.04
6,A65U U130A C131A,0.24
7,A69G A129G A142G,0.41
8,A67G A77G U91A,0.46
9,A77C A79G A141G,0.61
10,G74A U85A U143C,0.04
11,G74A U109C C118A A129U,0.79
12,A69G A107U G127A A136C,0.23
13,A77G A92U A107G,2.1
14,U73A U108C A117G U134C,2.76
15,A69G A77U G83A U115C A142G,0.11
16,A69G A121U C145A,0.94
17,A77G C84U U108C U134C U143C,0.41
18,A67U U130G U132G,0.11
19,C66U A79G U87G A94G U109A,0
20,A69U U100C U104C,0.11
21,U73C U102C G114A A136G,2.58
22,U73C C95A U100C,0.28
23,U73A A77U U96C,0
24,U73A U96C G135A,0.12

row,Variant,self-cleavage
1,A69G U108G U143C,0
2,G72A U73C U115A A117G C145A,1.91
3,A67G U81A G122C A140G,0.76
4,A67G A107C A141G,1.31
5,U73A G88A A117G G122U A136G,0.03
6,A67C G93A U104A A142C,0.04
7,G75A A78U U87C U115C U130C,0.68
8,A67U U91C U104C,0
9,A69G U73A A140U,0.3
10,G72A U85A U96A,0.02
11,A69G A77G U100C,0
12,A67U U96A U115C,0.05
13,C71U A94U U108A,0.17
14,G75A U119C A129U,1.39
15,C68A A78G U87C,0.06
16,U73A A78G U96A,0.03
17,U73C A79G C133U A136G,1.53
18,A67U U115A A141G,0.09
19,U73C A136G A140G,1.07
20,G72A A77G U85C A94G A140G,0
21,A67U U115C A138G,0.22
22,U73A A94G U100C,0.93
23,A69U C71A A141G,0.01
24,A67U G139U U143A,0.13

row,Variant,self-cleavage
1,C71U A77G U96A U134A,0.03
2,A77G A94G U119A,0.26
3,U73C A107G A142G,0
4,G70A U112A A138G,0.18
5,C71A G75C U85A,0
6,A69G U91C U132A,0
7,A67U A69U C113U,0.02
8,A67G A78G U115A A124G A138U,0.73
9,A67U C128A A138G,0.1
10,G74A C120A A124U U134A,1.96
11,A69U A117U A129U,0.07
12,A69G A77G U134A,0
13,U73A A107G U112A A136U,1.92
14,C71U A79G A117G,0.77
15,A69G G74A U130C,0.67
16,A67G U108C A141G,0.26
17,A69U A121U A129G,0.05
18,U73C U85C C99U,0.26
19,G72A U91C U134C,0.92
20,C76A C90U U104A A140G,0.06
21,A67U U73A A94G A107G,0.25
22,A67U U96A A129U G144A,0.18
23,C68U U73C A77G A78U U115A A117C A140G,0.23
24,A69U U73A C128A C146U,0

row,Variant,self-cleavage
1,U73C U132C A140U,2.49
2,U73C U130C A138G,2.36
3,A69G A79G A140G,0
4,A67U A69U A77G U104C U108C U115A,0
5,A67G U85C C99U A129U A138G A142G,0.04
6,A77G U91C A129G,1.41
7,G70U A78C A107G,0.13
8,C66U U115C A136G A142G,0.06
9,A77G A78G G80A A138G U143A,2.04
10,A67C G75A A77G,0.07
11,A69U A129U A136U,0.02
12,A69C U96C U102C,0.24
13,A69G U73A A92G,0.33
14,A77C U85C A117G,0
15,A77G A79U U96C G122A,0
16,A69G A77U U96A U134C,0.09
17,A69G U81A C120U U143C,0.49
18,A69G U91C U102A,0.26
19,A77U A79U U132A,2.31
20,A69G G74A U108C U130C,0.65
21,G72U A136U A140G,0.99
22,C68U A79G A92G,0.1
23,A69C A78G C111A U119C A136G,0
24,U73A U100C C111A,2.84

row,Variant,self-cleavage
1,A69U U81A A107G,0.05
2,A67G U91C U134A,0.14
3,A77G G126A U130A U132A,1.98
4,G72A U73C A142U,1.42
5,U73G G74A U134C,1.31
6,A77G U85C U130C,0
7,A77G A107G U109C,1.84
8,A69G G70A U102A,0.04
9,A69G U112C U134C,0
10,A67G G74A A79G U134A,0.06
11,A67U U73C A136G,0.36
12,C68U A129G A138G A141G,0.6
13,A69G G72U U104C A124U,0
14,A77G U102C A138G A141G,1.47
15,A67G A78G C145G,0.36
16,C68U U102A C116U,0.14
17,U73C A124G U132C,2.45
18,G72A U85C G144A,0.1
19,A67G U73A U87C A107G,0
20,G70U A107C A124U A142G,0.06
21,U73C G88A U112C,0.09
22,A69U C71U U102C U112C,0.02
23,A77G U85C A138G,0.09
24,A67G G72A A79U U100A,0.34

row,Variant,self-cleavage
1,A69U U73C U108G,0
2,U73A G74U A94G,0.27
3,A67G U87G A138G,0.27
4,C71U U100C G114C,1.98
5,A67G U85A U87C A138G,1.23
6,A65U U130C A136U A141G,0.06
7,U73C A79G A124G,0
8,U73C G97A A129G A136G,0.18
9,U73C U87C A142G,0.45
10,A77U A121G A142G,0.94
11,A69G U100A U108C,0.6
12,G75A U100C U143C,1.05
13,A69G A138U A141G,0.74
14,A77U A129U U132C,1.52
15,A69U U73A A129G,0.08
16,A67G U100C U132C,0.97
17,A69G U130C A136U,0.61
18,A69G U100C G122A,0.12
19,U73A U81A A92G U115C,0.28
20,A77U A92G U102A U134C,0.4
21,G74A U134C A142G,0.97
22,U73A U87A U119C,0.04
23,A67G A107G A138G,0.81
24,G70U U100C A107G,0.06

row,Variant,self-cleavage
1,A67G A77U A141G,0.42
2,U73C A77G U96A C99U U104C,0
3,A67G G105U U115C A121G U134G,0.95
4,A77G C84U U102C,0.21
5,C66U A107G U143C,0.07
6,A77C A124G U130C,0.48
7,A77G G89A A92G C99A U104C,0.07
8,U73A C101U U115C,1.91
9,U73C U91A A117U A142G,1.15
10,C71U U87C A94U A138G,0.06
11,A67U A121G A141U,0.28
12,C66G A67G U85A A142G,0.05
13,G75A A77U A92U,0.32
14,A77U A78G U96C A107U,0.04
15,A69U G97A U104C U130C,0.03
16,C68A U104C U134C A140G,0
17,A67G A77G U87A,0.08
18,U73C U81G U100C,0
19,A69G U102A U112G G127A,0
20,A77G U130C U132G,1.78
21,A67U A77G G80A U81C U87C,0.14
22,G72A U91C U102C,0.34
23,U73C A138U A142G,2.8
